Data from PubChem BioAssay AID1346428 (National Center for Advancing Translational Sciences (NCATS), 2018).
The campaign covered roughly 48,000 compounds. About 1,200 (2.5%) were called active. About 2% were inconclusive and are not listed.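 Rule for the calls: active = activation of at least 60% and not above a set upper limit (about 1 call in 100 departs from these limits); inconclusive = activation of 40% to 60%, or above that upper limit; inactive = activation under 40%.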 Some of the results follow.

Target: Probable G-protein coupled receptor 32 (Homo sapiens) (UniProt O75388)
Assay: qHTS for Agonists of Human Resolvin D1 Receptor DRV1; note: 0% is about no effect
Conditions: CHO-K1 GPR32 beta-arrestin PathHunter luminescence, 90 min; at 76.9 µM; active compounds read high; zero percent set by DMSO-only wells
How it was run: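 Using DMSO wells as EC0, agonist-induced signal was taken as chemiluminescence from beta-Gal reconstituted upon beta-arrestin recruitment to GPR32 in CHO-K1 cells after 90 min compound treatment.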

Sequence of UniProt O75388 (O75388 whole entry, looked up): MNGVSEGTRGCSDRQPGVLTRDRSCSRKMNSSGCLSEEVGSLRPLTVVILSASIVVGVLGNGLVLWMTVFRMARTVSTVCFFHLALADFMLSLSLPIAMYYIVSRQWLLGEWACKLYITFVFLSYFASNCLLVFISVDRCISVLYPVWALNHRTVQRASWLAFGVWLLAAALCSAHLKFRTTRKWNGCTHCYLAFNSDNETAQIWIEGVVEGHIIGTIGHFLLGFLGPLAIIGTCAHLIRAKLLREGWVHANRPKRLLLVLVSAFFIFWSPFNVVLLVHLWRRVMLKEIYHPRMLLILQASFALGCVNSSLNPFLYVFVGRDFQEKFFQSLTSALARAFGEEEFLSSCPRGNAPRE

Structure (SMILES)	activation
CC(=O)c1ccc(N2C(=O)N(Cc3cccc(C(F)(F)F)c3)c3ccccc3S2(=O)=O)cc1	inactive: 2.01%
CC(=O)Nc1ccc(NC(=O)CCCc2nc(-c3ccc(C(C)(C)C)cc3)no2)cc1	inactive: 0.62%
Cc1ccc(NC(=O)c2cc(C)nn2-c2ccccc2)cc1	inactive: -14.8%
COc1ccc(N(Cc2cccs2)C(=O)c2ccccc2C)cc1	inactive: -14.5%
CCOc1cc(C(=O)Nc2ccc3oc(-c4ccc(F)cc4Cl)nc3c2)cc(OCC)c1OCC	inactive: -1%
CCCCNC(=O)CCC(=O)NNc1nc2ccccc2c2nc(-c3ccccc3)nn12	inactive: 1.53%
COc1ccc(OCC(=O)NCC2(N3CCN(C)CC3)CCCCC2)cc1	inactive: -2.7%
COc1cc(C2C(=O)N(C3CCCCC3)CC(=O)N2C2CCCC2)ccc1OC(C)C (centres undefined)	inactive: -17.7%
O=C(CSc1nc(-c2ccc(F)cc2)cc(C(F)(F)F)n1)NCc1ccccc1	inactive: 24.4%
CCOC(=O)c1ccc2c(c1)N(Cc1cccc(OC)c1)C(=O)c1ccccc1S2(=O)=O	inactive: -5.27%
Cc1cccc(C(=O)Nc2c3c(nn2-c2ccc(Cl)cc2)CS(=O)(=O)C3)c1	inactive: -19%
O=[N+]([O-])c1cc(-c2nc(-c3ccccc3)no2)ccc1NCC1CCCO1 (centres undefined)	inactive: -8.46%
CC(C)(C)OC(=O)N1CCC(c2c(C(=O)NC3CCN(Cc4ccccc4)CC3)cnn2-c2cccc(F)c2)CC1	inactive: -7.96%
CCOC(=O)c1c(-c2ccccc2)oc2ccc(NS(=O)(=O)c3ccc(OC)cc3)cc12	inactive: -35.5%
O=S(=O)(c1ccc(F)cc1)N1CCC(Oc2ccc(-n3cnnn3)cc2)CC1	inactive: -5.74%
COc1cccc(CNC(=O)c2nnn(CC(=O)Nc3cc(Cl)ccc3C)c2N)c1	inactive: -2.51%
CCC(=O)N1CCc2cc(Br)cc(S(=O)(=O)CCC(=O)Nc3cccc(CC)c3)c21	inactive: 26%
Cc1ccc(-c2ccc(=O)n(Cc3ccc(F)cc3)n2)cc1	inactive: 14.8%
COc1cccc(CNC(=O)Cn2c(=O)oc3cc(S(=O)(=O)N4CCCC4)ccc32)c1	inactive: 19.9%
Cc1ccc(Nc2cc(C)nc3nc(Cc4ccc(Cl)cc4)nn23)cc1	inactive: -0.249%
Cc1cccc(N2C(=O)C(CC(=O)Nc3cccc(F)c3)N(Cc3cccs3)C2=O)c1 (centres undefined)	inactive: -11.2%
CCOc1ccc(CCNC(=O)CCCc2cc(-c3ccc(OCC)cc3)on2)cc1	inactive: 16.6%
Cc1ccc(CN2CCSc3ccc(C(=O)Nc4ccc(Cl)cc4)cc32)cc1	inactive: -8.99%
CCCN(CCC)CCCNC(=O)c1cc2c(=O)oc3ccc(C)cc3c2s1	inactive: -2.96%
CCn1cc(C(=O)N2CCN(c3cc(Cl)ccc3C)CC2)c2cc(OC)c(OC)cc2c1=O	inactive: 17.9%
CC(NC(=O)C1(c2cccs2)CCOCC1)c1ccccc1 (centres undefined)	inactive: -9.65%
Cc1nc2cccnc2n1C1CCN(S(=O)(=O)c2ccc(Cl)cc2)CC1	inactive: 48.7%

Structure (SMILES)	activation
Cc1ccccc1CN1CCC(CNc2ncnc3onc(-c4ccc(Cl)cc4)c23)CC1	inactive: 10.7%
CN(C)S(=O)(=O)n1cc(/C=C(\NC(=O)c2ccccc2F)C(=O)NCCCn2ccnc2)c2ccccc21	inactive: 5.26%
O=C(Cc1csc2ccccc12)NCc1cccc(Br)c1	inactive: -1.02%
Cc1ccc2nc(/C(C#N)=C/c3cccc(Br)c3)[nH]c2c1	inactive: 25.7%
Cc1ccc(NC(=O)C2CCCN(c3ncnc4c3nc3n4CCCCC3)C2)cc1F (centres undefined)	inactive: 2.64%
O=C(O)CC(NS(=O)(=O)c1ccc(Cl)s1)c1ccccc1 (centres undefined)	inactive: 10.6%
Cc1nc2cccnc2n1-c1cccc(C(=O)NCc2ccc(OC(C)C)cc2)c1	inactive: 8.01%
COc1cc(NS(=O)(=O)c2ccc(NC(=O)C(C)Oc3ccc(Cl)cc3Cl)cc2)nc(OC)n1 (centres undefined)	inactive: 7.77%
O=C(Nc1cccc(C(F)(F)F)c1)C1CCN(c2nnc(-n3cccc3)s2)CC1	active: 93.8%
CCOc1ccc(NC(=O)c2c(NC(=O)c3ccco3)sc3c2CCC(C(C)(C)C)C3)cc1 (centres undefined)	inactive: -7.1%
Cc1cc(C)cc(Oc2coc3c(CN4CCN(C)CC4)c(O)ccc3c2=O)c1	inactive: 27.7%
O=C(NCc1ccccc1Cl)C1CCN(S(=O)(=O)c2ccc3c(c2)CCCN3C(=O)C2CCC2)CC1	inactive: -7.11%
CCC12CN3CC(C)(CN(C1)C3c1ccc(O)cc1O)C2=O (centres undefined)	inactive: -9.17%
Cc1cc(C)n(CC(=O)Nc2ccc(F)c(F)c2)c(=O)c1C#N	inactive: -4%
O=C(Cn1c(=O)n(Cc2ccco2)c(=O)c2ccc(C(=O)NC3CCCC3)cc21)Nc1ccc(F)cc1	inactive: -4.06%
COc1ccc(-n2nc(C(=O)NCCc3ccc(Cl)cc3)c3c4ccccc4n(C)c3c2=O)cc1Cl	inactive: 10.1%
COc1ccc(CCNC(=O)c2c(O)nc3cc(C)ccn3c2=O)cc1OC	inactive: -4.33%
O=C(Cn1nc2c(cc1=O)CCCC2)Nc1ccc(F)cc1F	inactive: 0.297%
Cc1cc(-c2ccc(C)c(S(=O)(=O)N3CCCC(C)C3)c2)on1 (centres undefined)	inactive: -9.56%
CCc1ccc(CNC(=O)c2ccc(CSc3nc4ccncc4n3Cc3ccc(OC)cc3)cc2)cc1	inactive: -7.59%
COc1ccc(N2CCN(C(=O)Cc3coc4ccc(C)cc34)CC2)cc1	inactive: -21.6%
O=S(=O)(Nc1cccc(Cl)c1)c1ccc2[nH]c3c(c2c1)CCCCCC3	active: 61.7%
CCOC(=O)c1c(NC(C)=O)c2c3c(sc2n1Cc1nc(-c2ccc(Cl)cc2)oc1C)CCCC3	inactive: -20%
CC(=O)c1cccc(NC(=O)CCS(=O)(=O)c2cc3c(cc2C)NC(=O)CO3)c1	inactive: -5.18%
CCN(CC)C(=O)C1=C(C)Nc2nc3ccccc3n2C1c1ccc(Br)cc1 (centres undefined)	inactive: 5.45%
CCc1noc(-c2ccc(NC(C)c3ccccc3)c([N+](=O)[O-])c2)n1 (centres undefined)	inactive: 1.5%
CC(C)Oc1cccc(NC(=O)C2CCN(S(=O)(=O)Cc3ccccc3)CC2)c1	inactive: -3.23%
